# The campaign covered roughly 400,000 compounds. About 2,200 (0.55%) were called active. The shares of active, inactive and inconclusive entries below differ from those in the screen. Calls come from the whole dose curve; as a rule, active = well fitted inhibition curve with a large enough effect; inconclusive = small, poorly fitted or top-dose-only effect, or another doubt; inactive = no such curve, though single readings can be large or run the other way. Potencies beside an inconclusive call are fits to weak or partial responses and may not hold up.
# Target: DNA polymerase kappa (Homo sapiens) (UniProt Q9UBT6)
# Experiment: qHTS for Inhibitors of Polymerase Kappa
# Conditions: purified Pol kappa, fluorescent DNA synthesis assay, 10 min; series mostly up to 107 µM
# Summary of the method: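 Enzyme at 10 nM met test compounds for 15 min at room temperature. Substrate addition (50 nM final) began the reaction, which was monitored by fluorescence at 0 and 10 min.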
# Potency is the fitted concentration of half-maximal effect; tags give direction and shape of the fitted curve.
# UniProt Q9UBT6, sequence (Q9UBT6 whole entry, looked up): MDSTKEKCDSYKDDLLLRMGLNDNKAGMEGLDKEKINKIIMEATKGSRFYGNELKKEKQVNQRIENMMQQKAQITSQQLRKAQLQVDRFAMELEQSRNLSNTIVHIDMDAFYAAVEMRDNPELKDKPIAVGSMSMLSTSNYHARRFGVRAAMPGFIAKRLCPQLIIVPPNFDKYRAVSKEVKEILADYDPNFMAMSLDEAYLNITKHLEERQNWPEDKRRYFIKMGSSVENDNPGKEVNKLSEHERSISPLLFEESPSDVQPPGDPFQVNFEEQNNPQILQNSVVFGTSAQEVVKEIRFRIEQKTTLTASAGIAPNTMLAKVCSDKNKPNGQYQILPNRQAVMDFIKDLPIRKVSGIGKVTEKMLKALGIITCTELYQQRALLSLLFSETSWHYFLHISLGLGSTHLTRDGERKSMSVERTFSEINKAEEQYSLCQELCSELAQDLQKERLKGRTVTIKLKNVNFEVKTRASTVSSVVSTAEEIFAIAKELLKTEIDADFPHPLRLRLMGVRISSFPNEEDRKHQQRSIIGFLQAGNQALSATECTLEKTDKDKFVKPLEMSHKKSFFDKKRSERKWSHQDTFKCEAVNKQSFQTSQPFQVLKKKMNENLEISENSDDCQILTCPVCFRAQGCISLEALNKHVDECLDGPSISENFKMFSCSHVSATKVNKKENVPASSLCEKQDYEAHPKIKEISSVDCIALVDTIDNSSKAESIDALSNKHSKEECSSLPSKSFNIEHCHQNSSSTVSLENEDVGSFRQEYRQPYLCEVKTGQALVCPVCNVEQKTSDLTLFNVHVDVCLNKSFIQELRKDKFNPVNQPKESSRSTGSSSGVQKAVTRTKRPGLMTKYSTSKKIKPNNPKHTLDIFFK
row,Compound,Potency
1,CCN(CC(=O)Nc1ccccc1C(F)(F)F)C(=O)CCc1nc2sc3c(c2c(=O)[nH]1)CCCC3,"inconclusive: 89.1 µM [inhibitor, single point]"
2,CCN1CCC(N(Cc2ccc(F)cc2)C(=O)Nc2cc(Cl)ccc2C(=O)OC)CC1,"inconclusive: 89.1 µM [inhibitor, single point]"
3,Cc1nn(C)c2c1c(-c1ccccc1)cc(=O)n2Cc1ccc(Cl)cc1,"inconclusive: 35.5 µM [inhibitor, single point]"
4,CS(=O)(=O)c1ccc2c(c1)SC1=NC(=O)/C(=C/c3ccco3)C(=N)N12,active: 35.5 µM
5,CC(C)(C)c1ccc(OCCn2c(CCNC(=O)C3CCCCC3)nc3ccccc32)cc1,inactive
6,COc1cc(N(C)C)ccc1C=c1c2ccccc2n2c1cc(-c1ccccc1)[n+]2C,"inconclusive: 50.1 µM [inhibitor, partial curve, poor fit]"
7,COC(=O)c1cccc(Nc2nn3c(=O)c4cc5c(cc4nc3s2)OCO5)c1,inactive
8,CCC(=O)N1CCc2cc(S(=O)(=O)CCC(=O)Nc3ccc(Cl)c(C(F)(F)F)c3)ccc21,inactive
9,COc1ccccc1NS(=O)(=O)c1ccc(C)c(NS(=O)(=O)c2cc(NC(C)=O)ccc2OC)c1,"inconclusive: 89.1 µM [inhibitor, partial curve, poor fit]"
10,COc1ccc(NC(=O)CSc2oc(-c3cccs3)nc2S(=O)(=O)c2ccc(Br)cc2)c(OC)c1,inactive
11,CS(=O)(=O)c1ccc(Cl)c(NC(=O)Cc2c(F)cccc2Cl)c1,"inconclusive: 89.1 µM [inhibitor, partial curve, poor fit]"
12,CNc1ccc(Br)cc(C(=O)/C=C/c2cc(OC)ccc2OC)c1=O,"inconclusive: 79.4 µM [inhibitor, single point]"
13,COc1cc(/C=C/C(=O)Nc2ccc3[nH]c(=O)[nH]c3c2)cc(OC)c1OC,"inconclusive: 89.1 µM [inhibitor, partial curve, poor fit]"
14,CC(/C=N/n1c(-c2cc(C)[nH]n2)n[nH]c1=S)=C\c1ccco1,"inconclusive: 89.1 µM [inhibitor, single point]"
15,O=C1NN(c2ccccc2)C(=O)/C1=C\c1coc2ccc(O)cc2c1=O,"inconclusive: 79.4 µM [inhibitor, partial curve, poor fit]"
16,O=C(Oc1c(CN2CCOCC2)cc(Cl)c2cccnc12)c1ccccc1,inactive
17,CCCc1nc2sc3c(SCC(=O)NCc4ccco4)ncnc3c2c2c1CCC2,active: 28.2 µM
18,Cn1c(SCC(=O)Nc2sccc2C#N)nnc1-c1ccccc1,"inconclusive: 79.4 µM [inhibitor, partial curve, poor fit]"
19,CCC[n+]1cn(/C(C(=S)Nc2cccc(Cl)c2C)=C(/[O-])c2ccc(OC)c(OC)c2)c2ccccc21,inactive
20,Cc1nc2c(C(=O)N(C)Cc3ccccc3)c[nH]n2c(=O)c1Cc1ccc(Cl)cc1,active: 89.1 µM
21,O=C(Cc1cccc2ccccc12)N/N=C/c1ccc(OC(=O)/C=C/c2ccco2)cc1,"inconclusive: 79.4 µM [inhibitor, single point]"
22,Cc1ccccc1-n1c(SCC(=O)Nc2c(C)cccc2C)nc(O)cc1=O,inactive
23,O=C(/C=C/c1ccco1)NCC1OCCc2ccccc21 (stereo unspecified),active: 35.5 µM
24,O=c1c(-c2cc(F)cc(F)c2)nc2cnc(N3CCNCC3)nc2n1Cc1cccs1,active: 28.2 µM

row,Compound,Potency
1,COc1ccc(NC(=O)N2CCN(c3nc4ccccc4n3C(C)C)CC2)cc1,"inconclusive: 89.1 µM [inhibitor, partial curve, poor fit]"
2,O=C(c1cc(-c2ccc(Br)cc2)nc2ccccc12)N1CCC1,inactive
3,COc1ccc2nc(Cl)c(C3CC(c4ccco4)=NN3C(=O)CCCC(=O)O)cc2c1 (stereo unspecified),active: 28.2 µM
4,N#C/C(=C\c1ccc(O)c(O)c1)C(=O)OCCc1cccs1,"inconclusive: 11.2 µM [inhibitor, partial curve]"
5,CC(=O)c1ccc(S(=O)(=O)Nc2ccc(C(=O)NCCCn3ccnc3)cc2)cc1,"inconclusive: 89.1 µM [inhibitor, partial curve, poor fit]"
6,COc1ccc(Cn2ccc3nc(C)c(C(=O)Nc4ccc(OC)cc4OC)cc3c2=O)cc1,inactive
7,CC(=O)Oc1cc(O)c2c(=O)c(OC(C)=O)c(-c3ccc(OC(C)=O)c(OC(C)=O)c3)oc2c1,active: 7.08 µM
8,Cc1ccc(NC(=O)Cn2c(=O)n(CCc3ccccc3)c(=O)c3c4c(sc32)CCCC4)cc1C,inactive
9,Cc1cc(C(F)F)nn1CC(=O)NC1C(=O)N2C(C(=O)O)=C(CSc3nnnn3C)CSC12 (stereo unspecified),inactive
10,N=C1/C(=C/c2ccc(OCc3ccccc3F)cc2)C(=O)N=C2SC(CC(=O)N3CCOCC3)=NN12,"inconclusive: 89.1 µM [inhibitor, single point]"
11,CC(Cc1cccs1)NC(=O)Nc1ccc(Cl)cc1 (stereo unspecified),"inconclusive: 100 µM [inhibitor, single point]"
12,O=C1CSc2ccc(S(=O)(=O)N3CCN(c4ccccc4F)CC3)cc2N1,"inconclusive: 89.1 µM [inhibitor, single point]"
13,CC(=O)Oc1ccc(C(=O)Nc2cccc(C(=O)c3ccc(C)c(C)c3)c2)cc1,inactive
14,O=C(C1=C(O)C(=O)N(c2nc3ccc(Cl)cc3s2)C1c1ccco1)c1ccco1 (stereo unspecified),active: 39.8 µM
15,O=C(CCC1N=C2c3ccccc3N=C(SCc3cccc(F)c3)N2C1=O)NCc1ccc(F)cc1 (stereo unspecified),inactive
16,COc1ccccc1N1C(=N)S/C(=C\c2ccc(-c3ccccc3C(=O)O)o2)C1=O,active: 50.1 µM
17,Cc1ccccc1OCc1nnc(SCC(=O)O)n1-c1cccc(Cl)c1,inactive
18,Cc1ccc(C)c(NC(=O)Cn2nnc(C(=O)NCc3ccco3)c2N)c1,inactive
19,Cc1ccc(-n2c(Cc3cccn3C)nnc2SCC(=O)NCc2ccc3c(c2)OCO3)cc1,inactive
20,COc1cc(NCc2ccc3nc(N)nc(N)c3c2C)cc(OC)c1OC,"inconclusive: 25.1 µM [inhibitor, partial curve, poor fit]"
21,O=C(CCCN1C(=O)/C(=C/c2ccco2)SC1=S)Nc1cccc(C(=O)O)c1,active: 22.4 µM
22,CCn1c(=N)c(S(=O)(=O)c2ccccc2)cc2c(=O)n3ccccc3nc21,inactive
23,NC(=O)c1ccc(NC(=O)Cc2cccs2)cc1,"inconclusive: 100 µM [inhibitor, single point]"
24,NC(=S)NN=C1CCC(C2CCCCC2)CC1 (stereo unspecified),inactive

row,Compound,Potency
1,COc1cc(Cl)c(C)cc1NC(=O)c1ccccc1NC(=O)CN1CCOCC1,"inconclusive: 89.1 µM [inhibitor, single point]"
2,CC1CCCC(N2CCN(S(=O)(=O)c3ccccc3)CC2)C1 (stereo unspecified),inactive
3,O=C1C=C(O)c2ccccc2C1=O,"inconclusive: 35.5 µM [inhibitor, single point]"
4,Cc1ccc(N2CSC3=C(C#N)C(c4cccs4)CC(=O)N3C2)cc1 (stereo unspecified),"inconclusive: 35.5 µM [inhibitor, partial curve, poor fit]"
5,O=C1N/C(=N/NC(=O)c2cccc3ccccc23)S/C1=C\c1ccccc1OCc1ccccc1,active: 50.1 µM
6,Cn1nc2c(c1C(=O)O)CCCC2,"inconclusive: 79.4 µM [inhibitor, partial curve]"
7,Cc1ccc(NC(=O)C(C)OC(=O)c2cc(=O)[nH]c3ccccc23)cc1S(=O)(=O)N1CCOCC1 (stereo unspecified),active: 89.1 µM
8,CC(=O)[C@@]1(O)CC[C@H]2[C@@H]3C[C@H](C)C4=CC(=O)C=C[C@]4(C)[C@@]3(F)[C@@H](O)C[C@@]21C,"inconclusive: 89.1 µM [inhibitor, single point]"
9,Cc1nn(CC(=O)N2CCC(C)CC2)c(=O)c2cccn12,inactive
10,O=C1C[C@H](c2ccc(-c3ccccc3)cc2)N1S(=O)(=O)c1ccccc1[N+](=O)[O-],inactive
11,CC(C)c1c(O)nc(SCC(=O)N2CCCCC2)[nH]c1=O,inactive
12,Cc1ccc(-c2cc(C(=O)O)c3cc(Br)ccc3n2)o1,"inconclusive: 56.2 µM [inhibitor, partial curve, poor fit]"
13,C/C(=N\NC(=O)c1cc2ccccc2cc1O)c1ccccn1,inactive
14,Cn1c(=O)[nH]c(=O)c2c1nc(N1CCN(CCO)CC1)n2CCSc1nc2ccccc2s1,"inconclusive: 89.1 µM [inhibitor, single point]"
15,Cc1c(C(=O)N(Cc2ccco2)Cc2cccs2)oc2ccccc12,"inconclusive: 79.4 µM [inhibitor, single point]"
16,COC(=O)c1c(NC(=O)c2ccoc2C)sc2c1CCC2,"inconclusive: 89.1 µM [inhibitor, partial curve, poor fit]"
17,C=CC(C1=CC(=O)C(OC)=CC1=O)c1ccccc1 (stereo unspecified),"inconclusive: 31.6 µM [inhibitor, single point]"
18,C#Cc1ccc([C@@H]2C=C(C(=O)O)O[C@H](OCC)[C@H]2CCCO)cc1,active: 50.1 µM
19,C=CCOc1ccccc1/C=c1\sc2nc(=O)c(C)nn2c1=O,active: 50.1 µM
20,COC(=O)c1cc(=O)c(O)c2c(O)c(O)ccc2c1,active: 1.12 µM
21,Cc1nnc(SCC2=C(C(=O)O)N3C(=O)C(NC(=O)c4cc(F)c(F)cc4Cl)C3SC2)s1 (stereo unspecified),"inconclusive: 79.4 µM [inhibitor, partial curve]"
22,C[C@@H]1OC(O[C@H]2[C@H](Oc3cc(O)c4c(=O)c(O)c(-c5ccc(O)cc5)oc4c3)O[C@H](CO)[C@@H](O)[C@@H]2O)[C@H](O)[C@H](O)[C@H]1O (stereo partly specified),inactive
23,CCCC(=O)Nc1cccc(-c2nc3ncccc3o2)c1,"inconclusive: 89.1 µM [inhibitor, single point]"

# — PubChem BioAssay AID588579 (National Center for Advancing Translational Sciences (NCATS), 2011)
